According to the supplement of paper PMC7826260:
Some of the results follow. Each Rep nickase domain was tested in vitro on the same pool of single strands (3 µM enzyme, 1 h, 37 °C); shown is the middle of each 90-letter strand. Numbers give uncut DNA relative to the enzyme-free pool, as log2; the lower, the more was cut; hits are not called. Shares of all reads are compared; where an enzyme cuts many sequences, the uncut ones exceed 0.

Assays:
Assay in all cases: uncleaved DNA left, log2 of reads against the no-enzyme library (log2 ratio); higher = less cleavage (more negative = more Rep cleavage of the k-mer); sequences stand for … in CTCGTCCG…ACCGGAGA
[1] = test system: T1, Rep nickase domain of Muscovy duck circovirus
T1 sequence (residues 1-111, tag not shown): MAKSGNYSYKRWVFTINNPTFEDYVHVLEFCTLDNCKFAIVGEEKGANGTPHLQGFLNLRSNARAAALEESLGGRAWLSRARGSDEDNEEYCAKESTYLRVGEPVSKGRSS
Procedure: (§1)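 A pool of 90-nt single-stranded DNAs with seven random bases just before the constant AC of the nick site (name = the seven bases) was cut by 3 µM recombinant His6-SUMO-tagged Rep nickase domain (300 nM DNA, 50 mM HEPES pH 8.0, 50 mM NaCl, 1 mM MnCl2, 1 h, 37 °C, three replicates). Uncut DNA was amplified and sequenced.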

[2] = test system: T2, Rep nickase domain of banana bunchy top virus
T2 sequence (residues 1-94, tag not shown): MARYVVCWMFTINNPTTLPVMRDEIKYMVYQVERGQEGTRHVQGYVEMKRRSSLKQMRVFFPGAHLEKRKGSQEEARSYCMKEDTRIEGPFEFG
Procedure: as §1

[3] = test system: T3, Rep nickase domain of cabbage leaf curl virus
T3 sequence (residues 1-116, tag not shown): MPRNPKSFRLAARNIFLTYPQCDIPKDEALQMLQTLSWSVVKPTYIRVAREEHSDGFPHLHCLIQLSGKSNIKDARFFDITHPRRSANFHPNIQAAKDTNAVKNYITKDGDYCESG
Procedure: as §1

[4] = test system: T4, Rep nickase domain of chickpea chlorotic dwarf virus
T4 sequence (residues 1-124, tag not shown): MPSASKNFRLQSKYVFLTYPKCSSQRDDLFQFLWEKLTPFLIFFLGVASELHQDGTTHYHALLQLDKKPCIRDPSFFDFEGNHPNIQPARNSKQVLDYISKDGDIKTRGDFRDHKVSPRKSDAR
Procedure: as §1

[5] = test system: T5, Rep nickase domain of faba bean necrotic yellows virus
T5 sequence (residues 1-98, tag not shown): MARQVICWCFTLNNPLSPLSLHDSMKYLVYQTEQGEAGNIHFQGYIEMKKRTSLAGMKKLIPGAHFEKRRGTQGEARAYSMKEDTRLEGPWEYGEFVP
Procedure: as §1

[6] = test system: T6, Rep nickase domain of maize striate mosaic virus
T6 sequence (residues 1-117, tag not shown): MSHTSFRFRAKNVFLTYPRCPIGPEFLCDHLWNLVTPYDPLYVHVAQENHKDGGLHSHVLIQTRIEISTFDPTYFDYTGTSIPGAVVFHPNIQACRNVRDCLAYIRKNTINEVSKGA
Procedure: as §1

[7] = test system: T7, Rep nickase domain of porcine circovirus 2
T7 sequence (residues 2-116, tag not shown): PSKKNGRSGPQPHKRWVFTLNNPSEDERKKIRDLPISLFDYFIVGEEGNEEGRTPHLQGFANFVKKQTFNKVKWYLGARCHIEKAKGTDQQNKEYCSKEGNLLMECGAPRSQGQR
Procedure: as §1

[8] = test system: T8, Rep nickase domain of tomato golden mosaic virus
T8 sequence (residues 1-124, tag not shown): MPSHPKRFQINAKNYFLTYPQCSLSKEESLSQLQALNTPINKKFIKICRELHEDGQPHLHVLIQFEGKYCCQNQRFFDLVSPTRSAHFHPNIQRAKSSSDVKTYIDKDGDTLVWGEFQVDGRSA
Procedure: as §1

[9] = test system: T9, Rep nickase domain of tomato yellow leaf curl virus
T9 sequence (residues 1-136, tag not shown): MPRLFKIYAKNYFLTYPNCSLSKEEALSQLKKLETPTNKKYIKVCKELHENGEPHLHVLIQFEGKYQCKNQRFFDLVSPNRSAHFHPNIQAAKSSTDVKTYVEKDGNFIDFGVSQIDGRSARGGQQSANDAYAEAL
Procedure: as §1

[10] = test system: T10, Rep nickase domain of wheat dwarf virus
T10 sequence (residues 1-137, tag not shown): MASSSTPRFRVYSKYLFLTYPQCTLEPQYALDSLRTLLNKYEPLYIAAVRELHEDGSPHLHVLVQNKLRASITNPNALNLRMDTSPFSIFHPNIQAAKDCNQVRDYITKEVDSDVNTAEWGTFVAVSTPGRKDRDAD
Procedure: as §1

| Sequence | uncleaved DNA left (log2) [1] | uncleaved DNA left (log2) [2] | uncleaved DNA left (log2) [3] | uncleaved DNA left (log2) [4] | uncleaved DNA left (log2) [5] | uncleaved DNA left (log2) [6] | uncleaved DNA left (log2) [7] | uncleaved DNA left (log2) [8] | uncleaved DNA left (log2) [9] | uncleaved DNA left (log2) [10] |
| --- | --- | --- | --- | --- | --- | --- | --- | --- | --- | --- |
| TAAAGCG | -0.014 | -0.00243 | -0.881 | -0.0503 | 0.0337 | -0.632 | 0.093 | -0.0279 | 0.00135 | -0.0821 |
| ATATTCA | -0.112 | 0.0441 | -0.167 | -1.42 | -0.0901 | -0.929 | -0.282 | -0.0459 | 0.0894 | 0.0235 |
| GTTGGTA | 0.0176 | 0.0824 | 0.293 | 0.857 | 0.0817 | 1.74 | 0.12 | 0.0511 | 0.111 | 0.058 |
| AACAGAT | 0.0203 | -0.0432 | 0.234 | 1.07 | -0.0522 | 1.23 | -0.0763 | 0.0393 | -0.129 | -0.00152 |
| GAGAATA | 0.125 | 0.191 | 0.332 | 0.0317 | 0.0582 | 1.44 | -0.67 | 0.124 | 0.203 | 0.319 |
| AAACGGG | 0.198 | 0.0854 | -0.209 | -0.16 | 0.0759 | -0.776 | 0.153 | 0.0462 | 0.0532 | -0.00765 |
| ATGGGCG | 0.0763 | 0.0451 | -0.533 | 0.89 | 0.126 | -0.168 | 0.244 | 0.111 | 0.196 | 0.134 |
| CAAGGGG | 0.0867 | 0.0652 | 0.22 | 0.595 | 0.0583 | 0.127 | 0.259 | 0.0993 | 0.0495 | 0.154 |
| AGATATA | 0.00869 | -0.0221 | 0.201 | -0.792 | 0.157 | 0.111 | -0.186 | 0.0387 | 0.00537 | 0.112 |
| TAAAGAG | 0.0486 | -0.0137 | -1.51 | -2.03 | 0.0898 | -1.18 | 0.239 | 0.0903 | 0.107 | 0.0771 |
| GTAAGAG | 0.0397 | 0.0908 | -0.11 | -0.118 | 0.0615 | -0.583 | 0.048 | 0.0305 | 0.0144 | 0.0293 |
| CTGCCCG | -0.0868 | -0.0743 | -0.753 | -0.497 | -0.0302 | -0.819 | -0.452 | -0.105 | -0.172 | -0.0747 |
| CAATCAT | -0.45 | -0.0396 | -3.43 | -2.92 | -0.0564 | -1.68 | -3.18 | -2.78 | -0.0312 | -2.35 |
| ATCAGTA | -0.0369 | -0.00436 | -0.206 | -1.18 | 0.0646 | -0.932 | -0.0398 | 0.0431 | 0.0472 | 0.0862 |
| CTGGACC | 0.0123 | -0.0187 | 0.156 | 0.721 | -0.0714 | 0.7 | -0.132 | -0.151 | -0.0796 | 0.069 |
| TTCTCCA | -0.0941 | -0.112 | 0.0288 | -0.207 | -0.0227 | 0.744 | -0.203 | -0.204 | -0.0519 | -0.0341 |
| TAAGAGC | 0.0353 | 0.0209 | -0.083 | -0.396 | 0.0993 | -0.997 | 0.142 | 0.0459 | -0.00778 | -0.0164 |
| CCCCATC | -0.145 | -0.206 | -0.112 | -0.193 | -0.114 | -0.866 | -0.167 | -0.0538 | -0.0436 | 0.0227 |
| GGTACAT | -0.0163 | 0.0755 | 0.914 | 2.14 | 0.0159 | 2.33 | 0.248 | 0.0544 | 0.0681 | 0.238 |
| AACTGAT | -0.339 | -0.141 | -0.0397 | 0.629 | 0.0865 | 1.32 | -3.75 | 0.0452 | -0.00372 | 0.174 |
| TTTTATA | -0.17 | -0.0756 | 0.129 | -1.19 | 0.0353 | 0.254 | -0.274 | 0.0298 | 0.141 | -0.0432 |
| CGCAATA | 0.0193 | -0.0356 | -0.16 | -0.564 | 0.0417 | -0.35 | -0.126 | -0.024 | 0.0306 | 0.0708 |
| AATATAA | -0.06 | 0.0303 | -0.215 | -0.439 | -0.00869 | -0.594 | -0.117 | 0.0113 | -0.00583 | 0.0216 |
| AGCTGTT | -0.593 | -0.082 | -0.381 | 0.188 | -0.0224 | 1.33 | -3.15 | -0.179 | -0.237 | -0.208 |
| TCCCTCT | -0.101 | -0.125 | -0.0391 | -1.86 | -0.0463 | -0.665 | -0.323 | -0.16 | -0.106 | -0.19 |
| AGGAGGT | 0.0744 | 0.1 | 0.386 | 1.51 | 0.101 | 1.76 | 0.25 | 0.131 | -0.0106 | 0.119 |
| TGATGAC | 0.00192 | 0.0305 | 0.203 | 0.575 | -0.00414 | 0.357 | 0.083 | -0.00682 | -0.0328 | 0.0399 |
| TGCAACG | 0.0756 | 0.00456 | -0.629 | -0.866 | 0.0837 | -1.06 | 0.148 | 0.0324 | -0.0118 | -0.0375 |
| CTGCTCG | -0.145 | -0.213 | -0.915 | -0.391 | -0.0886 | -0.972 | -0.0287 | -0.145 | -0.098 | -0.337 |
| AGTAGAT | 0.0883 | 0.0935 | 0.285 | 1.32 | -0.0322 | 1.63 | -2.72 | 0.0995 | -0.102 | -0.0204 |
